# Assay results published in the supplement of paper PMC10037445.
# In all, about 2,900 compounds were measured (“IRF Lucia reporter activity, fold change vs agonist alone”: median about 0.9, highest 2% from about 2.8 on). This is one part of the list.
# How the values were obtained:
# RAW-Dual [1] = assay: IRF Lucia reporter activity, fold change vs agonist alone; cytotoxicity flag (confluency mask): not cytotoxic; higher = enhanced IRF activity
# How it was run: (§1)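 RAW-Dual macrophages (50,000 cells/well in DMEM, 384-well plates) received 50 nL of library stock by pin tool, then a PRR agonist 1 h later, and were kept at 37 °C, 5% CO2. After 20 hours, supernatant was read for IRF by QuantiLuc luminescence and for NF-κB by QuantiBlue absorbance at 620 nm. Reporter activity is fold change over agonist-alone wells. Cytotoxic wells had IncuCyte confluency below 70% of agonist controls in both mask sets.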
# RAW-Dual [2] = assay: IRF Lucia reporter activity, fold change vs agonist alone; higher = enhanced IRF activity; settings: library stock concentration (final ~1000-fold dilution): 10 mM, agonist: MPLA (TLR4) […]
# How it was run: as §1
# RAW-Dual [3] = assay: IRF Lucia reporter activity, fold change vs agonist alone; cytotoxicity flag (confluency mask): cytotoxic (confluency <70% of control); higher = enhanced IRF activity
# How it was run: as §1
# [4] = agonist: 3'3'-cGAMP (STING) 10 ug/mL
# [5] = cytotoxicity flag (confluency mask): not cytotoxic
compound,measurement,setting,value
c1cncc(CN2CCC(n3ncc4c(N5CCOCC5)nc(-c5ccc6[nH]ccc6c5)nc43)CC2)c1 (library stock concentration (final ~1000-fold dilution): 10 mM),IRF Lucia reporter activity,RAW-Dual [1]; [4],0.967
same,IRF Lucia reporter activity,RAW-Dual [1]; agonist: LPS (TLR4) 0.1 ug/mL,0.869
c1cncc(CN2CCC(n3ncc4c(N5CCOCC5)nc(-c5ccc6[nH]ccc6c5)nc43)CC2)c1,IRF Lucia reporter activity,RAW-Dual [2]; [5],1.05
COC(=O)CC(O)(CCCC(C)(C)O)C(=O)OC1C(OC)=CC23CCCN2CCc2cc4c(cc2C13)OCO4 (configuration not stated) (library stock concentration (final ~1000-fold dilution): 10 mM),IRF Lucia reporter activity,RAW-Dual [3]; [4],0.0146
same,IRF Lucia reporter activity,RAW-Dual [3]; agonist: LPS (TLR4) 0.1 ug/mL,0.0202
COC1CCN(C(=O)c2cc(Cc3n[nH]c(=O)c4ccccc34)ccc2F)CC1,IRF Lucia reporter activity,RAW-Dual [2]; [5],0.983
COC1CCN(C(=O)c2cc(Cc3n[nH]c(=O)c4ccccc34)ccc2F)CC1 (library stock concentration (final ~1000-fold dilution): 10 mM),IRF Lucia reporter activity,RAW-Dual [1]; [4],1.03
same,IRF Lucia reporter activity,RAW-Dual [1]; agonist: LPS (TLR4) 0.1 ug/mL,0.722
COc1ccc(C[C@@H]2c3cc(Oc4cc(C[C@@H]5c6cc(OC)c(OC)cc6CCN5C)ccc4O)c(OC)cc3CCN2C)cc1 (library stock concentration (final ~1000-fold dilution): 10 mM),IRF Lucia reporter activity,RAW-Dual [1]; [4],0.0517
same,IRF Lucia reporter activity,RAW-Dual [1]; agonist: LPS (TLR4) 0.1 ug/mL,0.991
CC(C)(c1ccc(OCC(O)CO)cc1)c1ccc(OCC(O)CCl)cc1 (configuration not stated) (library stock concentration (final ~1000-fold dilution): 10 mM),IRF Lucia reporter activity,RAW-Dual [1]; [4],0.998
same,IRF Lucia reporter activity,RAW-Dual [1]; agonist: LPS (TLR4) 0.1 ug/mL,1.04
O=C(Nc1ccc(Cl)cc1)c1cc2ccccc2cc1OP(=O)(O)O (library stock concentration (final ~1000-fold dilution): 10 mM),IRF Lucia reporter activity,RAW-Dual [1]; [4],1.19
same,IRF Lucia reporter activity,RAW-Dual [1]; agonist: LPS (TLR4) 0.1 ug/mL,1.12
CCOC(=O)c1[nH]c2cc(Cl)ccc2c1C(C(=O)NC(C)(C)C)N(C=O)Cc1ccc(Cl)cc1 (configuration not stated) (library stock concentration (final ~1000-fold dilution): 10 mM),IRF Lucia reporter activity,RAW-Dual [1]; [4],0.962
same,IRF Lucia reporter activity,RAW-Dual [1]; agonist: LPS (TLR4) 0.1 ug/mL,1.36
CCOC(=O)c1[nH]c2cc(Cl)ccc2c1C(C(=O)NC(C)(C)C)N(C=O)Cc1ccc(Cl)cc1 (configuration not stated),IRF Lucia reporter activity,RAW-Dual [2]; [5],1.18
CCCCN1CCCCC1C(=O)Nc1c(C)cccc1C (configuration not stated) (library stock concentration (final ~1000-fold dilution): 10 mM),IRF Lucia reporter activity,RAW-Dual [1]; [4],0.972
same,IRF Lucia reporter activity,RAW-Dual [1]; agonist: LPS (TLR4) 0.1 ug/mL,1.37
CCCCN1CCCCC1C(=O)Nc1c(C)cccc1C (configuration not stated),IRF Lucia reporter activity,RAW-Dual [2]; [5],1.19
CC(=O)OC1(C(C)=O)CCC2C3C=C(C)C4=CC(=O)CCC4(C)C3CCC21C (configuration not stated),IRF Lucia reporter activity,RAW-Dual [2]; [5],1
CC(=O)OC1(C(C)=O)CCC2C3C=C(C)C4=CC(=O)CCC4(C)C3CCC21C (configuration not stated) (library stock concentration (final ~1000-fold dilution): 10 mM),IRF Lucia reporter activity,RAW-Dual [1]; [4],1.09
same,IRF Lucia reporter activity,RAW-Dual [1]; agonist: LPS (TLR4) 0.1 ug/mL,0.962
CCCCc1ccc(O)cc1O (library stock concentration (final ~1000-fold dilution): 10 mM),IRF Lucia reporter activity,RAW-Dual [1]; [4],0.96
same,IRF Lucia reporter activity,RAW-Dual [1]; agonist: LPS (TLR4) 0.1 ug/mL,1.45
CCCCc1ccc(O)cc1O,IRF Lucia reporter activity,RAW-Dual [2]; [5],1.22
CCOP(=O)(OCC)C(=Cc1cc(C(C)(C)C)c(O)c(C(C)(C)C)c1)P(=O)(OCC)OCC (library stock concentration (final ~1000-fold dilution): 10 mM),IRF Lucia reporter activity,RAW-Dual [1]; [4],0.416
same,IRF Lucia reporter activity,RAW-Dual [1]; agonist: LPS (TLR4) 0.1 ug/mL,1.28
Cc1cc2c(F)c(Oc3ncnn4cc(OCC(C)OC(=O)C(C)N)c(C)c34)ccc2[nH]1 (configuration not stated),IRF Lucia reporter activity,RAW-Dual [2]; cytotoxicity flag (confluency mask): cytotoxic (confluency <70% of control),2.88
Cc1cc2c(F)c(Oc3ncnn4cc(OCC(C)OC(=O)C(C)N)c(C)c34)ccc2[nH]1 (configuration not stated) (library stock concentration (final ~1000-fold dilution): 10 mM),IRF Lucia reporter activity,RAW-Dual [3]; [4],0.967
same,IRF Lucia reporter activity,RAW-Dual [3]; agonist: LPS (TLR4) 0.1 ug/mL,2.13
Cc1ccc2c(=O)c3cccc(CC(=O)O)c3oc2c1C (library stock concentration (final ~1000-fold dilution): 10 mM),IRF Lucia reporter activity,RAW-Dual [1]; [4],1.08
same,IRF Lucia reporter activity,RAW-Dual [1]; agonist: LPS (TLR4) 0.1 ug/mL,6.08
Cc1ccc2c(=O)c3cccc(CC(=O)O)c3oc2c1C,IRF Lucia reporter activity,RAW-Dual [2]; [5],0.965
COc1ccc(CC2c3cc(OC)c(OC)cc3CC[N+]2(C)CCC(=O)OCCCCCOC(=O)CC[N+]2(C)CCc3cc(OC)c(OC)cc3C2Cc2ccc(OC)c(OC)c2)cc1OC (configuration not stated),IRF Lucia reporter activity,RAW-Dual [2]; [5],0.872
COc1ccc(CC2c3cc(OC)c(OC)cc3CC[N+]2(C)CCC(=O)OCCCCCOC(=O)CC[N+]2(C)CCc3cc(OC)c(OC)cc3C2Cc2ccc(OC)c(OC)c2)cc1OC (configuration not stated) (library stock concentration (final ~1000-fold dilution): 10 mM),IRF Lucia reporter activity,RAW-Dual [1]; [4],0.641
same,IRF Lucia reporter activity,RAW-Dual [1]; agonist: LPS (TLR4) 0.1 ug/mL,0.674
CC(C(=O)O)c1ccc2c(c1)CC(=O)c1ccccc1S2 (configuration not stated),IRF Lucia reporter activity,RAW-Dual [2]; [5],1.19
CC(C(=O)O)c1ccc2c(c1)CC(=O)c1ccccc1S2 (configuration not stated) (library stock concentration (final ~1000-fold dilution): 10 mM),IRF Lucia reporter activity,RAW-Dual [1]; [4],1.13
same,IRF Lucia reporter activity,RAW-Dual [1]; agonist: LPS (TLR4) 0.1 ug/mL,1.11
CN(CCNc1ccnc2cc(Cl)ccc12)CCNc1ccnc2cc(Cl)ccc12.Cl.Cl.Cl (library stock concentration (final ~1000-fold dilution): 10 mM),IRF Lucia reporter activity,RAW-Dual [3]; [4],0.512
same,IRF Lucia reporter activity,RAW-Dual [3]; agonist: LPS (TLR4) 0.1 ug/mL,0.312
COc1ccc2c(-c3ccc(O)c(C)c3)ccnc2c1 (library stock concentration (final ~1000-fold dilution): .1 mM),IRF Lucia reporter activity,RAW-Dual [1]; [4],0.136
same,IRF Lucia reporter activity,RAW-Dual [1]; agonist: LPS (TLR4) 0.1 ug/mL,0.631
COc1cc2c(cc1OC)C1Cc3ccc(OC)c(OC)c3CN1CC2.Cl (configuration not stated),IRF Lucia reporter activity,RAW-Dual [2]; [5],1.14
COc1cc2c(cc1OC)C1Cc3ccc(OC)c(OC)c3CN1CC2.Cl (configuration not stated) (library stock concentration (final ~1000-fold dilution): 10 mM),IRF Lucia reporter activity,RAW-Dual [1]; [4],1.09
same,IRF Lucia reporter activity,RAW-Dual [1]; agonist: LPS (TLR4) 0.1 ug/mL,1.25
COc1cc(O)c2c(=O)cc(-c3ccc(O)cc3)oc2c1 (library stock concentration (final ~1000-fold dilution): 10 mM),IRF Lucia reporter activity,RAW-Dual [1]; [4],0.437
same,IRF Lucia reporter activity,RAW-Dual [1]; agonist: LPS (TLR4) 0.1 ug/mL,0.862
CCN(CC)CCOC(=O)C(c1ccccc1)c1ccccc1.Cl,IRF Lucia reporter activity,RAW-Dual [2]; [5],1.06
CCN(CC)CCOC(=O)C(c1ccccc1)c1ccccc1.Cl (library stock concentration (final ~1000-fold dilution): 10 mM),IRF Lucia reporter activity,RAW-Dual [1]; [4],1.17
same,IRF Lucia reporter activity,RAW-Dual [1]; agonist: LPS (TLR4) 0.1 ug/mL,1.19
Cc1nc(-c2ccc(OCC(C)C)c(C#N)c2)sc1C(=O)O (library stock concentration (final ~1000-fold dilution): 10 mM),IRF Lucia reporter activity,RAW-Dual [1]; [4],1.07
same,IRF Lucia reporter activity,RAW-Dual [1]; agonist: LPS (TLR4) 0.1 ug/mL,1.04
Cc1nc(-c2ccc(OCC(C)C)c(C#N)c2)sc1C(=O)O,IRF Lucia reporter activity,RAW-Dual [2]; [5],1.08
Cn1cc(-c2cc(Oc3cc(F)c(NC(=O)C4(C(=O)Nc5ccccc5)CC4)cc3F)ccn2)cn1 (library stock concentration (final ~1000-fold dilution): 10 mM),IRF Lucia reporter activity,RAW-Dual [1]; [4],0.145
same,IRF Lucia reporter activity,RAW-Dual [1]; agonist: LPS (TLR4) 0.1 ug/mL,0.468
